Test results as given in the supplement of paper PMC10126150.
Sequences with one replicate were seen in a single cluster, so their values are uncertain.

The sequences below were run on ATP (assay: switch fluorescence ratio, 500 uM ATP over buffer (Cy3 cluster intensity, sum of 5 cycles each) (fold (ratio)); higher = stronger signal-on switching upon ATP binding; sequences stand for … in TCGTCGGCAGCGTCAGATGTGTATAAGAGACAGTTTTTTTTTTTTTTTTTTTTTTTTT…TC). Conditions: aptamer strand: ATP DNA aptamer (quencher-CACCTGGGGGAGTATTGCGGAGGAAGG + anchor), 100 nM annealed; ATP concentration: 500 uM; one replicate.
How it was run: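 Clusters carrying Cy3-labelled switching strands on a modified Illumina MiSeq flow-cell were annealed to 100 nM quencher-labelled ATP aptamer and imaged in selection buffer. They were imaged again after 15 min with 500 uM ATP at 22 °C, over five buffer/ATP cycles with NaOH stripping and re-annealing in between. For each cluster, the fluorescence ratio is the summed Cy3 intensity of the target cycles divided by that of the buffer cycles, averaged per switch-domain sequence. Clusters outside 100-1000 RFU were left out.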
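Also: ATP exposure 15 min at 22 °C before imaging.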

Sequence	switch fluorescence ratio
TTGATTAAGT	0.968
TTGATTAGTG	0.985
TTGATTCAGG	1.02
TTGATTCTCA	1
TTGATTTCCC	1.03
TTGATTTGGG	0.972
TTGATTTTG	1.04
TTGCAAATAT	2.97
TTGCAGCTCT	1.07
TTGCAGGAGA	1.01
TTGCAGGGC	1.08
TTGCATAAGT	1.12
TTGCATAGGC	0.996
TTGCATCTA	1.05
TTGCATTGGT	1
TTGCCACAGG	1.39
TTGCCACTGC	1.04
TTGCCAGCAA	1.64
TTGCCAGCTG	0.996
TTGCCCAGGC	1.11
TTGCCCAGTT	1.37
TTGCCCGGGG	1.11
TTGCCGGTAC	2.16
TTGCCTAGTC	1.2
TTGCCTATGG	1.03
TTGCGGGTCA	1.04

Sequence	switch fluorescence ratio
TTGCGTAGCT	1.06
TTGCGTCTTT	1.03
TTGCGTGTCG	1
TTGCGTGTTC	1.16
TTGCTAGGGT	1
TTGCTGAATT	0.984
TTGCTGATCG	0.996
TTGCTGCT	0.96
TTGCTTACGA	1.05
TTGCTTACGT	1.05
TTGGAAAACT	1.19
TTGGAACCAC	1.09
TTGGAATACA	0.969
TTGGACCTTC	1.52
TTGGACGAG	0.942
TTGGACTTCT	1.02
TTGGAGCTTG	1
TTGGAGT	0.985
TTGGAGTTCC	1.01
TTGGATAATC	1
TTGGATACAG	1.02
TTGGATATCT	1.02
TTGGATCTTG	0.978
TTGGATTCAC	1.01
TTGGCATTGT	0.976
TTGGCCCAAG	1.06

Sequence	switch fluorescence ratio
TTGGCCGAGT	0.991
TTGGCCGGCC	1.01
TTGGCCGGGC	0.996
TTGGCTATGG	0.937
TTGGGAGTA	0.996
TTGGGATCCT	1.03
TTGGGCGATA	0.968
TTGGGCTAGC	1.02
TTGGGCTCGA	1.01
TTGGGCTTCG	1.11
TTGGGTATAC	0.952
TTGGGTCGCC	1.01
TTGGGTGACG	0.942
TTGGGTGCGT	1.02
TTGGTATGTC	0.979
TTGGTCAGGC	1.01
TTGGTCCGAT	0.996
TTGGTCCTCC	1.01
TTGGTCTGT	0.998
TTGGTGATCG	0.935
TTGGTGCTT	1.03
TTGGTGTACA	0.929
TTGGTGTTGA	1.03
TTGGTTATAT	0.967
TTGGTTGCTC	0.978
TTGTAAAAAC	0.983

Sequence	switch fluorescence ratio
TTGTAAATCT	0.984
TTGTAACTGA	0.992
TTGTACAAGC	1.04
TTGTAGCGG	1.09
TTGTATATTA	1.01
TTGTATCC	1.02
TTGTCCAAGA	1.03
TTGTCGAATT	0.985
TTGTCGCCTA	1.04
TTGTCGGAAC	1.02
TTGTCGTAGC	0.954
TTGTCTACCG	1.06
TTGTCTTTGA	1.04
TTGTGAGGCC	0.98
TTGTGATCTG	1.02
TTGTGCCGTT	0.919
TTGTGCCTTT	1.04
TTGTGCGGTG	1.17
TTGTGGAAGT	0.952
TTGTGGACAC	0.959
TTGTGGCCAC	0.983
TTGTGGCCGA	0.978
TTGTGGGCA	1.02
TTGTGGTACC	1.06
TTGTGTAACG	0.974
TTGTGTACT	0.996

Sequence	switch fluorescence ratio
TTGTTACAGT	1.05
TTGTTACCGG	1.02
TTGTTAGGCA	1.12
TTGTTCTGA	0.995
TTGTTGGACA	0.998
TTGTTGGCTA	1
TTGTTGGT	0.968
TTGTTGTTC	0.972
TTGTTTAAA	0.951
TTGTTTAGCA	0.977
TTGTTTCG	0.957
TTGTTTGAAT	0.984
TTGTTTTGAC	1.04
TTTAAACGAA	0.975
TTTAAACTTC	0.952
TTTAAAGAAG	1.06
TTTAAAGGTC	0.982
TTTAAAT	0.99
TTTAAATTCC	1.91
TTTAACAGT	0.953
TTTAACGGTA	1.06
TTTAAGCGAG	1.01
TTTAAGGTAC	1.19
TTTAAGGTG	1.44
TTTAATATG	1.03
TTTAATGTGA	1.01

Sequence	switch fluorescence ratio
TTTAATTCA	1
TTTAATTCAA	0.971
TTTACATCG	1.1
TTTACATCGA	1.05
TTTACCAGG	1.2
TTTACCAGGA	1.03
TTTACCTGCG	1.08
TTTACGACCC	1.49
TTTACGCATC	2.49
TTTACGTCAT	1.19
TTTACTAAGA	1.06
TTTACTAGAC	1.53
TTTACTTAAC	1.12
TTTAGAAGCA	0.983
TTTAGACACC	0.913
TTTAGACGCC	1.07
TTTAGAGCCT	1.01
TTTAGATCAT	1.01
TTTAGATTCC	1.06
TTTAGCCTAA	0.94
TTTAGGAGTC	1
TTTAGGCCTA	1.01
TTTAGGCCTG	1.02
TTTAGGCGCG	1.03
TTTAGTACAC	1.04
TTTAGTAGAC	0.997

Sequence	switch fluorescence ratio
TTTATAAGA	0.971
TTTATAAGCT	1.06
TTTATACTGA	1.02
TTTATAGCTC	1.15
TTTATCAAAT	1.05
TTTATCGCGA	1.06
TTTATCTCAT	0.989
TTTATCTGGC	1.05
TTTATTGCCA	0.997
TTTATTGTG	0.943
TTTCAATCCG	1.04
TTTCAATCGT	0.925
TTTCAATT	1.01
TTTCACAACT	0.976
TTTCACGCT	1.04
TTTCACGGGC	1.04
TTTCAGTAA	1.28
TTTCATACTA	0.98
TTTCATAGAG	0.971
TTTCATGCCT	1.03
TTTCATTGC	0.979
TTTCCACAGC	1.51
TTTCCTAGTG	0.987
TTTCCTTAGT	1.06
TTTCCTTCCT	1.79
TTTCGAAGAT	1.02

Sequence	switch fluorescence ratio
TTTCGAAGTG	0.988
TTTCGATACT	1.01
TTTCGCCACG	1.22
TTTCGCGCAA	3.2
TTTCGCTA	1.08
TTTCGGCGAC	1.08
TTTCGGTAAT	1.01
TTTCGTGGTA	0.973
TTTCGTTGAT	0.966
TTTCTACAGG	1.05
TTTCTACTAA	1.01
TTTCTAGTGT	0.98
TTTCTATACC	1.04
TTTCTATGAG	0.958
TTTCTGAGGC	1.01
TTTCTGATCA	0.978
TTTCTGCCGA	1.28
TTTCTGGATC	1.01
TTTCTTCTTC	0.965
